Data reported in PubChem BioAssay AID328 (DTP/NCI, 2004).
Toxic doses and inconclusive results are not listed. A number of entries come with more than one value. They are shown here; other results are not. An entry can have further records. The values listed for one entry do not match, cause unknown; they may come from other doses, times, organisms or constructs than stated.

System: BDF1 mice, P388 leukemia ip, median survival T/C
Experiment: NCI In Vivo Anticancer Drug Screen. Data for tumor model P388 Leukemia (intraperitoneal) in B6D2F1 (BDF1) mice
Details: endpoint: median survival time, higher = longer survival
In short: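 Reported as T/C, where T is the survival measurement in dosed animals and C the same measurement in vehicle controls.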

SMILES: O=S(=O)(Sc1ccc(N(CCCl)CCCl)cc1)c1ccc(N(CCCl)CCCl)cc1
- T/C (dose: 200.0 mg/kg/injection, schedule: Q01DX009 (ip), vehicle: saline with Tween-80): 115 % of control and 150 % of control

SMILES: COc1cccc2c1C(=O)c1c(O)c3c(c(O)c1C2=O)C[C@@](O)(C(=O)CO)C[C@@H]3OC1CC(NC(=S)Nc2ccc3ccccc3c2)C(O)C(C)O1 (some centres not stated)
- T/C (dose: 12.5 mg/kg/injection, schedule: Q01DX009 (ip), vehicle: saline): 94 % of control and 150 % of control

SMILES: Nc1ccc(C(=O)Nc2ccc(N(CCCl)CCCl)cc2)cc1
- T/C (dose: 25.0 mg/kg/injection, schedule: Q01DX009 (ip), vehicle: saline): 109 % of control and 166 % of control

SMILES: Nc1nc(N)c2c(Cl)c(CNc3ccc(Cl)c(Cl)c3)ccc2n1
- T/C (dose: 200.0 mg/kg/injection, schedule: Q04DX003 (ip), vehicle: water): 102 % of control and 157 % of control

SMILES: COc1cc2c[n+](C)c3c4cc5c(cc4ccc3c2cc1OC)OCO5
- T/C (dose: 2.0 mg/kg/injection, schedule: Q01DX009 (ip), vehicle: water): 122 % of control and 165 % of control
- T/C (dose: 4.0 mg/kg/injection, schedule: Q01DX009 (ip), vehicle: water): 104 % of control and 180 % of control
- T/C (dose: 8.0 mg/kg/injection, schedule: Q01DX009 (ip), vehicle: water): 122 % of control and 190 % of control
